Measured values taken from PubChem BioAssay AID504333 (National Center for Advancing Translational Sciences (NCATS), 2011).
The campaign covered roughly 360,000 compounds. About 16,000 (4.4%) were called active. Inconclusive results, whose numbers are uncertain, are shown with a selection of clear calls. The call rests on the fitted dose curve; in most records, active means well fitted inhibition curve with a large enough effect; inconclusive means small, poorly fitted or top-dose-only effect; inactive means no such curve, though single readings can be large or run the other way. Potencies beside an inconclusive call are fits to weak or partial responses and may not hold up.
Further: nearly all actives have a fitted effect of over 60% in size.
On the % scale 0 is the no-effect control and ±100 the full control effect; potency means the concentration at half of the fitted maximal effect; tags describe the fitted curve by direction and shape.

The molecules below were run against Bromodomain adjacent to zinc finger domain protein 2B (Homo sapiens) (UniProt Q9UIF8) (assay: qHTS Assay for Inhibitors of BAZ2B). Conditions: AlphaScreen BAZ2B-H3K14Ac peptide displacement; activity change, negative = inhibition: at 114 µM (top of the series) unless noted.
Chain of UniProt Q9UIF8 (Q9UIF8 whole entry, looked up, the tested form may be a part): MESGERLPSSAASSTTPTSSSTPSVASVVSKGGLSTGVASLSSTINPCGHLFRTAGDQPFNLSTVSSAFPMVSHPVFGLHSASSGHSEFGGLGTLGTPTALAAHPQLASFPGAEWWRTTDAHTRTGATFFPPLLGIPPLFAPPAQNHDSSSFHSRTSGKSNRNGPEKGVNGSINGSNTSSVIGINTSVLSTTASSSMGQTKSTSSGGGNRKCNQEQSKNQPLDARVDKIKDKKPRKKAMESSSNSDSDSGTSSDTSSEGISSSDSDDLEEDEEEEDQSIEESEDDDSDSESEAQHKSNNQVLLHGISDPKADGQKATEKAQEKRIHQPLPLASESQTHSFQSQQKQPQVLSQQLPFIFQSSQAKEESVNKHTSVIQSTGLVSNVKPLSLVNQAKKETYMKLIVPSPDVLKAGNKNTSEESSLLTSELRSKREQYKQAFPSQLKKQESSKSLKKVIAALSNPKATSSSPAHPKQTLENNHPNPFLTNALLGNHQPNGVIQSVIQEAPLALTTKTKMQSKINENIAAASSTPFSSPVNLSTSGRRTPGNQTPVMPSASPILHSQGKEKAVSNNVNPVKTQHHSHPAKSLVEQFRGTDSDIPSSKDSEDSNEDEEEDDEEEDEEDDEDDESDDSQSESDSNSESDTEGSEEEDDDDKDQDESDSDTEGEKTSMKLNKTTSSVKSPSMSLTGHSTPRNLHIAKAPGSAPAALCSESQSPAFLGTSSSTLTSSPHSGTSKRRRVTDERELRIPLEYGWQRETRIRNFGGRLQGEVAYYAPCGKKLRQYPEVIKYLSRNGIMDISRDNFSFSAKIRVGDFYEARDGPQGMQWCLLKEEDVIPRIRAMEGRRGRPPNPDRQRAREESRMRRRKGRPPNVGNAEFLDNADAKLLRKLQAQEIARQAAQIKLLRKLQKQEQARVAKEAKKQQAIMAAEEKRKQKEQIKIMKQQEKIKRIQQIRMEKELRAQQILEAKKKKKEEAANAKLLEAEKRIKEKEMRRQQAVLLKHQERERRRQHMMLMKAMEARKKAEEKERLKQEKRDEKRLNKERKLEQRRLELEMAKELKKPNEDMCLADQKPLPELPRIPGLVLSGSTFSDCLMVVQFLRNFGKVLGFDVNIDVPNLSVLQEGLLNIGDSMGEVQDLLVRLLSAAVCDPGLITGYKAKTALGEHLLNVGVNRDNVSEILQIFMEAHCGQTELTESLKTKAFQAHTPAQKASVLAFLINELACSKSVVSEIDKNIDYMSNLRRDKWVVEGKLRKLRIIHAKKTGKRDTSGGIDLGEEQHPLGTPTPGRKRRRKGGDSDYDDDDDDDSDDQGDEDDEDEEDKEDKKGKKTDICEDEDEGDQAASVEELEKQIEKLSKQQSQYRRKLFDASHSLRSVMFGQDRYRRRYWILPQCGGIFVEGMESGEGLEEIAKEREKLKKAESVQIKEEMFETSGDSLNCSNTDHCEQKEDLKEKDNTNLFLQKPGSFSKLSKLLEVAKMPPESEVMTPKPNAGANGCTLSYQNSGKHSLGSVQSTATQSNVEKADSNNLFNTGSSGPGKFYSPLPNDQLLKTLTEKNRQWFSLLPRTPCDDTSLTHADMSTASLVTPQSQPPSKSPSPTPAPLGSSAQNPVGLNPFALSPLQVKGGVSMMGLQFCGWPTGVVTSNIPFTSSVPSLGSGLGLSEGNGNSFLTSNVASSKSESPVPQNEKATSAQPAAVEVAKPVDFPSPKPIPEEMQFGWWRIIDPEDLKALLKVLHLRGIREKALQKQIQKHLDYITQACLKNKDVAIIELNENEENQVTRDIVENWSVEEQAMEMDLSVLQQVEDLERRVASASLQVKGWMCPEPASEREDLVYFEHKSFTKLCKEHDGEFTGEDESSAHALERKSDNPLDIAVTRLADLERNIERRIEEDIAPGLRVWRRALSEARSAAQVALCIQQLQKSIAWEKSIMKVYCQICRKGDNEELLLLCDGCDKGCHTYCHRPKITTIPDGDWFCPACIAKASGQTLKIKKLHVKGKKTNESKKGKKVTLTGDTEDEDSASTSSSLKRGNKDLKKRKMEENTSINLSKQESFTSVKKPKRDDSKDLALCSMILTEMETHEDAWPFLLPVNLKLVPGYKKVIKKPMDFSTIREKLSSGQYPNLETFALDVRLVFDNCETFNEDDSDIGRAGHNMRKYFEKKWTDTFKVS
Procedure, shortened: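 AlphaScreen luminescence quantifies BAZ2B engagement of H3K14Ac peptide; the protein and biotinylated peptide are both at 50 nM final, buffer PBS pH 7.4 with 0.01% Tween-20, all steps at room temperature.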
`NC(=O)c1nsc(C(=O)N(c2cccc(F)c2)C(C(=O)NCC2CCCO2)c2c[nH]c3ccccc23)c1N` (stereo not drawn) was tested, and the Potency was inconclusive: 70.8 µM [inhibitor, single point]. With `CC[n+]1ccc(C)c2cc(P(=O)(c3ccccc3)c3ccccc3)ccc21` the Potency was active: 44.7 µM. In the case of `COc1ccc(C(=O)N/N=C/c2ccccn2)cc1OC`, the Potency is reported as inconclusive: 79.4 µM [inhibitor, single point]. In the case of `COc1ccc(Cn2c(C(=O)O)c(CNC3CCCC3)c3ccc(OC)cc32)cc1`, the Potency is reported as inconclusive: 79.4 µM [inhibitor, partial curve]. For `CN1CCC(OC(=O)COc2ccc(Br)cc2)CC1`, the “activity change, negative = inhibition” value was inactive: -9.96%. `CCc1cc2c(CN3CCN(Cc4ccccc4)CC3)cc(=O)oc2cc1O` was tested, and the Potency was inconclusive: 50.1 µM [inhibitor, partial curve]. `CCOc1ccc(C(=O)N(CN2CCCC2=O)c2cccc(Cl)c2)cc1` was tested, and the “activity change, negative = inhibition” value was inactive: -13.7%. In the case of `NC(=O)c1ccc(N=Nc2c(O)c3ccccc3[nH]c2=O)cc1`, the Potency is reported as inconclusive: 39.8 µM [inhibitor, partial curve, poor fit]. `CC(=O)Nc1nc(C=C(Cl)Cl)cs1` was tested, and the Potency was inconclusive: 6.31 µM [inhibitor, full curve, poor fit]. With `O=C(NCc1ccco1)c1ccc(S(=O)(=O)N2CCCCC2)cc1` the “activity change, negative = inhibition” value was inactive: -11.1%. In the case of `Cc1ccc(NC(=O)CCc2ccc(C)o2)cc1`, the Potency is reported as inconclusive: 79.4 µM [inhibitor, single point]. For `CSc1nc(N(CCO)CCO)c2sc3nc(-c4ccco4)c4c(c3c2n1)CCC4`, the Potency was inconclusive: 89.1 µM [inhibitor, single point]. In the case of `Cc1cc(C(=O)COC(=O)c2ccc[nH]c2=O)c(C)n1-c1ccc(Br)cc1`, the Potency is reported as inconclusive: 89.1 µM [inhibitor, single point]. `Cc1cc(C)c(C(=O)NCCCN2CCOCC2)c(C)c1` was tested, and the Potency was inconclusive: 89.1 µM [inhibitor, single point]. `CC(=O)NCc1ccc(S(=O)(=O)NC(C)CCc2ccccc2)cc1` (stereo not drawn) was tested, and the “activity change, negative = inhibition” value was inactive: 0.341%. `O=C(Nc1nc(-c2ccccn2)cs1)c1ccc([N+](=O)[O-])o1` was tested, and the Potency was active: 20 µM. With `C[C@H](NC(=O)OCc1ccccc1)C(=O)N[C@@H](Cc1c[nH]c2ccccc12)C(=O)O` the “activity change, negative = inhibition” value was inactive: 8.44%. For `O=C(NS(=O)(=O)Nc1ccc(Cl)cc1)c1c[nH]c2ccccc12`, the Potency was inconclusive: 28.2 µM [inhibitor, single point]. In the case of `Cc1ccc(/C=C2\SC(=S)N(c3c(C)n(C)n(-c4ccccc4)c3=O)C2=O)cc1`, the Potency is reported as inconclusive: 89.1 µM [inhibitor, single point]. In the case of `Cc1ccccc1-c1nnn(CC(=O)Nc2sc3c(c2C#N)CCC(C(C)(C)C)C3)n1` (stereo not drawn), the “activity change, negative = inhibition” value is reported as inactive: -12.5%. In the case of `CCCCCc1cc(=O)oc2c(C(CCN3CCCCC3)c3ccc4c(c3)OCO4)c(OC)cc(OC)c12` (stereo not drawn), the Potency is reported as inconclusive: 50.1 µM [inhibitor, partial curve]. `CCN(CC(=O)N1CCC(C(N)=O)CC1)S(=O)(=O)c1ccc(Cl)cc1` was tested, and the Potency was inconclusive: 1 µM [inhibitor, full curve, poor fit]. `COc1cccc(N=Nc2c(=O)[nH]n3c(=O)c4c([nH]c23)CCC4)c1` was tested, and the Potency was active: 44.7 µM. For `O=C(NCCCN1CCc2ccccc2C1)C1CCN(S(=O)(=O)N2CCCC2)CC1`, the Potency was active: 50.1 µM. With `COc1ccc(-c2nnc(SCC(=O)N/N=C/c3ccccc3C(=O)O)n2-c2ccccc2)cc1` the “activity change, negative = inhibition” value was inactive: -25.3%. `CC1CC(C)CN(c2ccc(C(=O)NCc3ccc4c(c3)OCO4)cc2[N+](=O)[O-])C1` (stereo not drawn) was tested, and the Potency was inconclusive: 31.6 µM [inhibitor, full curve]. For `Cc1onc(-c2c(Cl)cccc2Cl)c1C(=O)NC(=S)N1CCOCC1`, the Potency was inconclusive: 79.4 µM [inhibitor, single point]. In the case of `O=C(NC1(C(F)(F)F)NC(=O)N(Cc2ccccc2)C1=O)c1cccnc1` (stereo not drawn), the Potency is reported as inconclusive: 89.1 µM [inhibitor, single point]. In the case of `O=C1CCc2cc(OCCCCc3nnnn3C3CCCCC3)ccc2N1`, the Potency is reported as inconclusive: 79.4 µM [inhibitor, single point]. `COc1ccc(-c2[nH]c(-c3ccccc3)nc2SCC(=O)Nc2nccs2)cc1` was tested, and the Potency was inconclusive: 70.8 µM [inhibitor, partial curve, poor fit]. `CCOc1cc(C2c3c(n[nH]c3C)C(=O)N2c2ccc(Br)cc2)ccc1O` (stereo not drawn) was tested, and the Potency was inconclusive: 89.1 µM [inhibitor, single point]. `N=C1/C(=C/c2coc3ccccc3c2=O)C(=O)N=C2SC(c3ccco3)=NN12` was tested, and the Potency was active: 70.8 µM. `O=C(C1CCCO1)N1N=C(c2ccc(Br)cc2)CC1c1ccco1` (stereo not drawn) was tested, and the Potency was inconclusive: 89.1 µM [inhibitor, single point]. `O=C(c1ccc2ccccc2c1)N1CCN(c2ccc([N+](=O)[O-])c(N3CCOCC3)c2)CC1` was tested, and the Potency was inconclusive: 39.8 µM [inhibitor, partial curve]. With `COc1cc(/C=C2/C(=O)NN(c3cccc(C)c3)C2=O)ccc1OC(=O)c1ccco1` the Potency was inconclusive: 63.1 µM [inhibitor, partial curve, poor fit]. `C/C(=C\C(=S)Nc1ccccc1)Nc1ccc2ccccc2c1` was tested, and the Potency was active: 25.1 µM. For `CS/C(=N\NC(N)=O)c1ccccc1`, the “activity change, negative = inhibition” value was inactive: 3.39%. `COc1cccc(Nc2nc(N)c([N+](=O)[O-])c(NCc3ccccc3)n2)c1` was tested, and the Potency was inconclusive: 28.2 µM [inhibitor, full curve, poor fit]. `CC(C(=O)NC(=O)NC1CCCCC1)N1CCN(c2ccc(O)cc2)CC1` (stereo not drawn) was tested, and the Potency was inconclusive: 89.1 µM [inhibitor, single point]. In the case of `Cc1cc(C)nc(SCC(=O)N/N=C/c2cccn2-c2ccc(O)cc2)n1`, the Potency is reported as inconclusive: 89.1 µM [inhibitor, single point]. `C=CCN1C(=O)/C(=C/c2ccc(-c3ccc(F)cc3)o2)SC1=S` was tested, and the Potency was inconclusive: 8.91 µM [inhibitor, partial curve, poor fit]. In the case of `CC(=O)n1cc(-c2ccncc2)c2ccccc21`, the Potency is reported as inconclusive: 89.1 µM [inhibitor, single point]. In the case of `O=C(O)CC1S/C(=N\N=C2CCCCCCC2)N(c2ccccc2)C1=O` (stereo not drawn), the Potency is reported as inconclusive: 79.4 µM [inhibitor, single point]. In the case of `CCOc1ccc(-c2nnc(SCC(=O)Nc3cccc(OC)c3)nc2-c2ccc(OCC)cc2)cc1`, the “activity change, negative = inhibition” value is reported as inactive: -6.15%. In the case of `CCOc1cc(/C=C2\C(=O)N(Cc3ccco3)C(C)=C2C(=O)OC)ccc1O`, the Potency is reported as active: 50.1 µM. In the case of `COc1ccc(Cn2ccnc2SCC(=O)Nc2ccccc2OC)cc1`, the Potency is reported as inconclusive: 44.7 µM [inhibitor, partial curve]. With `CCOc1cc(/C=C2\C(=O)N(Cc3ccc(C)cc3)C(C)=C2C(=O)OC)ccc1O` the Potency was inconclusive: 22.4 µM [inhibitor, single point]. For `COc1cccc(-c2nc(NC3CCCC3)c3ccccc3n2)c1O`, the Potency was active: 35.5 µM. In the case of `CCOc1cc(C#N)c(NC(=O)Cn2nnc(-c3ccc(C)cc3)n2)cc1OCC`, the “activity change, negative = inhibition” value is reported as inactive: -20.6%. `CCc1ccc(S(=O)(=O)Nc2ccc(O)c3ccccc23)cc1` was tested, and the Potency was inconclusive: 44.7 µM [inhibitor, partial curve]. With `CCN1CCN(C(=O)Cn2cnc3sc(C)c(S(=O)(=O)N4CCN(c5ncccn5)CC4)c3c2=O)CC1` the “activity change, negative = inhibition” value was inactive: -0.528%. `CN(C)c1ccc(NC2=C(Cl)C(=O)c3ccccc3C2=O)cc1` was tested, and the Potency was active: 2.51 µM. `CCOC(=O)C1CCCN(C(=O)c2cc(Nc3ccc(OC)c(OC)c3)nc3ccccc23)C1` (stereo not drawn) was tested, and the Potency was inconclusive: 50.1 µM [inhibitor, partial curve]. With `Cc1cc(C)c2c(N)c(S(=O)c3ccc(C(C)(C)C)cc3)sc2n1` (stereo not drawn) the Potency was inconclusive: 79.4 µM [inhibitor, single point]. `O=[N+]([O-])c1ccc(Oc2c(F)c(F)nc(N3CCCC3)c2F)cc1` was tested, and the Potency was inconclusive: 39.8 µM [inhibitor, full curve]. In the case of `COc1ccccc1N1CCN(/N=C\C(Br)=C\c2ccccc2)CC1`, the Potency is reported as inconclusive: 79.4 µM [inhibitor, single point]. For `CC(=O)c1ccc(NC(=O)COC(=O)c2ccccc2N=Nc2ccc(N(C)C)cc2)cc1`, the Potency was active: 5.01 µM. `O/N=C1\CCCc2c1nc(-c1ccccc1F)n2O` was tested, and the Potency was active: 50.1 µM. In the case of `Cc1nc2ccccc2c(=O)n1/N=C/c1cccnc1`, the Potency is reported as inconclusive: 8.91 µM [inhibitor, single point]. In the case of `CCCCOc1cc(C(=O)NCCN(CC)CC)c2ccccc2n1`, the Potency is reported as inconclusive: 79.4 µM [inhibitor, single point]. For `Cc1ccc(-c2csc(N3CCC[C@@H]3C(=O)NCCn3c(-c4ccncc4)nc4ccccc43)n2)cc1`, the Potency was active: 44.7 µM. `COc1ccccc1NS(=O)(=O)c1ccc(NN=C2CCCC2)c([N+](=O)[O-])c1` was tested, and the Potency was inconclusive: 10 µM [inhibitor, full curve]. `COc1cccc(-c2nn(C)c3sc(C(=O)N4CCN(c5ccccn5)CC4)cc23)c1` was tested, and the Potency was inconclusive: 79.4 µM [inhibitor, single point]. `CCOC(=O)c1c(NC(N)=O)nc2n1CCC2` was tested, and the Potency was inconclusive: 89.1 µM [inhibitor, single point]. For `CC(=O)c1cccc(NS(=O)(=O)c2ccc(N/C=C\C(=O)c3ccc(F)cc3)cc2)c1`, the “activity change, negative = inhibition” value was inactive: -29.1% [at 57.1 µM]. `CC(=O)c1ccc(N(C(=O)CNC(=O)c2ccco2)C(C(=O)NCC2CCCO2)c2ccccc2)cc1` (stereo not drawn) was tested, and the Potency was inconclusive: 35.5 µM [inhibitor, partial curve]. In the case of `COc1ccc2cc3c(N)nn(C(=O)c4ccc(OC)c(OC)c4)c3nc2c1`, the Potency is reported as active: 79.4 µM. In the case of `O=C(Nc1ccccc1C(F)(F)F)n1ncc2cc(Cl)ccc21`, the Potency is reported as inconclusive: 89.1 µM [inhibitor, single point].
